In all, about 18,000 sequences were measured (“TetR repression strength (sort-seq, GFP reporter)”: median about 0.23, highest 2% from about 0.68 on). This is one part of the list.

Chain of UniProt P04483 (P04483 whole entry): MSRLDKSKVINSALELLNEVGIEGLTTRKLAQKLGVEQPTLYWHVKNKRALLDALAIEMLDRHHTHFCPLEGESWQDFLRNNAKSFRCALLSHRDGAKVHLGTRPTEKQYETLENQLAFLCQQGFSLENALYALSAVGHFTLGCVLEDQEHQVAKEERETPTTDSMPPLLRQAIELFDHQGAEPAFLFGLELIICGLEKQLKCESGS

This experiment has as its target TetR (class B, Tn10) (UniProt P04483). Put plainly: TetR repression strength (sort-seq, GFP reporter) (relative to tetO2 = 1); higher = stronger repression. To be noted: E. coli. The method, boiled down:
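Repression strength is the top bin index plus one minus the read-weighted mean bin, relative to the unaltered operator's value. A low-copy library in E. coli SIG10-MAX randomized eight operator positions between a constitutive promoter and sfGFP, with TetR expressed constitutively; cells grew 5 h at 37 °C in LB with 50 µg/mL chloramphenicol and 10^6 were FACS-sorted into 13 bins that were each Illumina-sequenced. Three independent transformations were averaged, keeping only members with ≥30 reads in all replicates and CV ≤0.5.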
In turn, TCCCTTGAAGTCATTGAGA showed a TetR repression strength of 1.05.

Consider TCCCGTGAAGTAGGCGAGA, for which the TetR repression strength amounted to 0.0942.

On to TCCCTCTGAGTGGAGGAGA, for which the TetR repression strength turned out to be 0.186.

Take TCCCGTTGAGTCAGTGAGA: the TetR repression strength was found to be 0.493.

As to TCCCATGTAGTGTATGAGA, the TetR repression strength amounted to 0.112.

With TCCCTGATAGTCTTCGAGA, the TetR repression strength is 0.299.

In turn, TCCCGTGAAGTCGCTGAGA returned a TetR repression strength of 0.168.

For the sequence TCCCAGTGAGTATGCGAGA, the TetR repression strength was determined as 0.263.

Regarding TCCCCTTAAGTCTCCGAGA, the TetR repression strength is 0.236.

Sequence TCCCGTAAAGTTCGAGAGA returned a TetR repression strength of 0.207.

TCCCGCTGAGTATAGGAGA came in with a TetR repression strength of 0.0823.

In turn, TCCCGGAGAGTGCTAGAGA had a TetR repression strength of 0.162.

In the case of TCCCCCGGAGTACGTGAGA, the TetR repression strength turned out to be 0.187.

As for TCCCAATTAGTGTGGGAGA, the TetR repression strength was 0.0215.

With TCCCAAGTAGTAGGGGAGA, the TetR repression strength was 0.322.

With TCCCAAAGAGTAAACGAGA, the TetR repression strength worked out at 0.184.

In the case of TCCCGCGGAGTCCGAGAGA, the TetR repression strength is 0.202.

On to TCCCTTTAAGTGAGCGAGA, for which the TetR repression strength was found to be 0.0365.

For the sequence TCCCTTCAAGTTGAGGAGA, the TetR repression strength was found to be 0.0988.

Take TCCCCGTAAGTCGGCGAGA: the TetR repression strength worked out at 0.134.

TCCCTAGCAGTTAGTGAGA displayed a TetR repression strength of 0.301.

In turn, TCCCCAGGAGTGTTAGAGA yielded a TetR repression strength of 0.285.

In the case of TCCCCCCGAGTTCCGGAGA, the TetR repression strength was found to be 0.295.

On to TCCCAGAGAGTAACAGAGA, for which the TetR repression strength came out at 0.251.

For the sequence TCCCCAACAGTAGCGGAGA, the TetR repression strength was 0.445.

In the case of TCCCAGGCAGTCGTTGAGA, the TetR repression strength stood at 0.196.

As to TCCCGCTTAGTCCGTGAGA, the TetR repression strength amounted to 0.183.

For the sequence TCCCGTCAAGTGGCCGAGA, the TetR repression strength came to 0.152.

In turn, TCCCGATGAGTGGCGGAGA came in with a TetR repression strength of 0.117.

Turning to TCCCTCTGAGTATTAGAGA, the TetR repression strength is 0.502.

In turn, TCCCCTATAGTCCAGGAGA registered a TetR repression strength of 0.28.

Sequence TCCCAGCAAGTAACTGAGA returned a TetR repression strength of 0.213.

For TCCCAAGAAGTCAAGGAGA, the TetR repression strength was 0.393.

As for TCCCAGAGAGTGGGTGAGA, the TetR repression strength came out at 0.182.

For TCCCCTACAGTGCGTGAGA, the TetR repression strength is 0.373.

TCCCGTGCAGTTCGTGAGA yielded a TetR repression strength of 0.287.

The sequence TCCCGGTTAGTTAGCGAGA gave a TetR repression strength of 0.363.

In turn, TCCCAAACAGTAGTGGAGA showed a TetR repression strength of 0.158.

Sequence TCCCGAGTAGTGTTGGAGA yielded a TetR repression strength of 0.254.

Sequence TCCCGTGGAGTCGCAGAGA gave a TetR repression strength of 0.164.

In the case of TCCCCTCCAGTCTTGGAGA, the TetR repression strength is 0.321.

In the case of TCCCTGGTAGTACGAGAGA, the TetR repression strength is 0.219.

In turn, TCCCTATGAGTGTGTGAGA displayed a TetR repression strength of 0.207.

TCCCCTTGAGTGTCTGAGA came in with a TetR repression strength of 0.25.

On to TCCCATAGAGTTGTCGAGA, for which the TetR repression strength came out at 0.2.

With TCCCCCTCAGTGGATGAGA, the TetR repression strength is 0.124.

The sequence TCCCTGGGAGTTATAGAGA yielded a TetR repression strength of 0.354.

As to TCCCGTCAAGTATATGAGA, the TetR repression strength came to 0.301.

In the case of TCCCAAGGAGTATGGGAGA, the TetR repression strength came to 0.138.

Sequence TCCCAGTGAGTGGATGAGA showed a TetR repression strength of 0.151.

TCCCTGGGAGTAGAGGAGA displayed a TetR repression strength of 0.303.

TCCCATTGAGTTCCGGAGA gave a TetR repression strength of 0.115.

Sequence TCCCCCTGAGTGAGCGAGA had a TetR repression strength of 0.228.

TCCCCGGGAGTATCAGAGA showed a TetR repression strength of 0.332.

TCCCGTTTAGTTAGCGAGA registered a TetR repression strength of 0.155.

TCCCAGGGAGTAGGAGAGA gave a TetR repression strength of 0.147.

TCCCAGGCAGTCGAGGAGA displayed a TetR repression strength of 0.148.

As for TCCCTTAAAGTTTCTGAGA, the TetR repression strength was 0.287.

The sequence TCCCATCTAGTGCTGGAGA gave a TetR repression strength of 0.319.

The sequence TCCCGTATAGTGGGGGAGA showed a TetR repression strength of 0.0618.

In turn, TCCCGCAGAGTGCTAGAGA showed a TetR repression strength of 0.299.

As to TCCCATGTAGTCCTGGAGA, the TetR repression strength is 0.341.

For TCCCTTGTAGTCTTGGAGA, the TetR repression strength is 0.287.

TCCCTGACAGTAAGAGAGA registered a TetR repression strength of 0.175.

For TCCCAGAGAGTCAGTGAGA, the TetR repression strength is 0.518.

As to TCCCCAGCAGTATTGGAGA, the TetR repression strength is 0.178.

TCCCTAGTAGTGGAAGAGA gave a TetR repression strength of 0.181.

TCCCGTGCAGTAGGCGAGA registered a TetR repression strength of 0.151.

The sequence TCCCGGCTAGTAATGGAGA yielded a TetR repression strength of 0.484.

Sequence TCCCTGCAAGTGGTTGAGA gave a TetR repression strength of 0.279.

TCCCCAAGAGTTTGGGAGA returned a TetR repression strength of 0.217.

As for TCCCTGACAGTGGCGGAGA, the TetR repression strength is 0.306.

Sequence TCCCGGCGAGTGCACGAGA yielded a TetR repression strength of 0.0839.

Turning to TCCCGGTTAGTGCGCGAGA, the TetR repression strength worked out at 0.254.

Turning to TCCCGTAAAGTATCAGAGA, the TetR repression strength came to 0.231.

Consider TCCCAGCAAGTGAGGGAGA, for which the TetR repression strength is 0.218.

For the sequence TCCCGCCTAGTACGAGAGA, the TetR repression strength was 0.306.

For TCCCGTACAGTGGCGGAGA, the TetR repression strength turned out to be 0.0736.

Sequence TCCCTTGGAGTAGAGGAGA displayed a TetR repression strength of 0.118.

As to TCCCAGAGAGTTGTTGAGA, the TetR repression strength was determined as 0.202.

With TCCCGCGGAGTTAGCGAGA, the TetR repression strength came to 0.198.

Turning to TCCCCTCCAGTAAGTGAGA, the TetR repression strength came out at 0.0276.

Sequence TCCCATACAGTGTAGGAGA gave a TetR repression strength of 0.168.

Take TCCCCGATAGTTATCGAGA: the TetR repression strength is 0.189.

Take TCCCCGCAAGTGGGGGAGA: the TetR repression strength was 0.218.

As for TCCCGAAAAGTGAAAGAGA, the TetR repression strength came to 0.36.

As to TCCCAGCAAGTGAAGGAGA, the TetR repression strength is 0.0241.

TCCCCCTCAGTGAAAGAGA gave a TetR repression strength of 0.311.

As to TCCCGTTGAGTCATCGAGA, the TetR repression strength came to 0.204.

Sequence TCCCCCGGAGTGGTGGAGA gave a TetR repression strength of 0.148.

As to TCCCCACTAGTCCAAGAGA, the TetR repression strength is 0.482.

TCCCGGGCAGTATGTGAGA had a TetR repression strength of 0.0784.

Turning to TCCCAGTTAGTTCATGAGA, the TetR repression strength amounted to 0.12.

Regarding TCCCGGTTAGTGGTCGAGA, the TetR repression strength turned out to be 0.0681.

The sequence TCCCGTACAGTCTTCGAGA yielded a TetR repression strength of 0.207.

In turn, TCCCTCATAGTGCTGGAGA returned a TetR repression strength of 0.466.

The sequence TCCCTTTCAGTGTTGGAGA gave a TetR repression strength of 0.276.

Sequence TCCCTGTTAGTGGTTGAGA came in with a TetR repression strength of 0.322.

On to TCCCCATGAGTGGCGGAGA, for which the TetR repression strength came out at 0.181.

TCCCAGCCAGTTGGGGAGA: the TetR repression strength amounted to 0.174.

As to TCCCAGACAGTTGTCGAGA, the TetR repression strength came to 0.254.

As for TCCCAGCGAGTCAAAGAGA, the TetR repression strength was found to be 0.215.

These data come from a collection of fitness landscapes (doi:10.1038/s41467-024-54723-y).
